Some of the results follow. Shown are side measurements of this screen, not its main read-out; they come without a call.
Tests used:
Assay in all cases: Primary Screen for Target Class Profiling of Small Molecule Inhibitors of Methyltransferases
[1] = biological target: Glycine N-methyltransferase (Homo sapiens) (UniProt Q14749); settings: purified enzyme, MTase-Glo SAH luminescence; measured here: GNMT inhibition; at 40 µM; stronger effect = lower value
Procedure, shortened: (§1)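 Each enzyme was reacted with SAM and its substrate, with compounds tested once at 40 uM; SAH formed was read by MTase-Glo luminescence.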

[2] = biological target: Guanidinoacetate N-methyltransferase (Homo sapiens) (UniProt Q14353); settings: purified enzyme, MTase-Glo SAH luminescence; measured here: GAMT inhibition; at 40 µM; stronger effect = lower value
Procedure, shortened: as §1

[3] = biological target: Histamine N-methyltransferase (Homo sapiens) (UniProt P50135); settings: purified enzyme, MTase-Glo SAH luminescence; measured here: HNMT inhibition; at 40 µM; stronger effect = lower value
Procedure, shortened: as §1

[4] = biological target: Nicotinamide N-methyltransferase (Homo sapiens) (UniProt P40261); settings: purified enzyme, MTase-Glo SAH luminescence; measured here: NNMT inhibition; at 40 µM; stronger effect = lower value
Procedure, shortened: as §1

[5] = biological target: Phenylethanolamine N-methyltransferase (Homo sapiens) (UniProt P11086); settings: purified enzyme, MTase-Glo SAH luminescence; measured here: PNMT inhibition; at 40 µM; stronger effect = lower value
Procedure, shortened: as §1
% is scaled to controls: 0 for no effect and ±100 for the full control effect.

| Structure (SMILES) | activity change, negative = inhibition [1] | activity change, negative = inhibition [2] | activity change, negative = inhibition [3] | activity change, negative = inhibition [4] | activity change, negative = inhibition [5] |
| --- | --- | --- | --- | --- | --- |
| c1ccc(CCCc2noc(-c3ccc(N4CCOCC4)nc3)n2)cc1 | -6.82% | -2.12% | -3.23% | -6.31% | -1.66% |
| Cn1c(=O)c2ccc(C(=O)NC3CCCCC3)cc2n2c(=O)n(Cc3ccccc3F)nc12 | -0.915% | 4.59% | 2.66% | -3.12% | -0.23% |
| CNCc1ccc(-c2cc(-c3nc(-c4ccc(S(=O)(=O)C(C)C)cc4)cnc3N)on2)cc1 | -4.54% | 0.063% | -5.13% | -17.2% | -32.6% |
| CCCCCCCCCCCCCCCCCCN(CCCCCCCCCCCCCCCCCC)CCCN(CCO)CCO | 4.17% | 7.88% | 1.29% | -3.26% | 7.72% |
| CC(C)(N)C(=O)N1CCN(c2nc(-c3ccccc3)nc3c2CCC3)CC1 | -5.66% | -3.35% | -8.12% | -8.51% | -8.84% |
| CN1CCN(CCCN2c3ccccc3Sc3ccc(C(F)(F)F)cc32)CC1 | -4.22% | 9.63% | -12.7% | -63.9% | 0.076% |
| Nc1ccn([C@@H]2C(F)=C(CO)[C@@H](O)[C@H]2O)c(=O)n1 | 1.94% | 6.27% | 9.6% | -8.71% | 8.16% |
| CCC1(C2CCN(C(=O)CCCc3ccccc3)CC2)NC(=O)N(CCc2scnc2C)C1=O (configuration not stated) | -1.24% | 3.04% | 0.303% | 1.14% | 1.97% |
| CCCCNc1nc2c(S(=O)(=O)c3ccc(C)c(C)c3)nnn2c2ccccc12 | -4.81% | 0.633% | 4.06% | -3.83% | -5.91% |
| CC1(C(=O)NCc2ccc(F)cc2)Cn2cnc(C(=O)NC3CCCCC3)c2C(=O)N1C1CC1 (configuration not stated) | 1.26% | 0.519% | 5.42% | -0.34% | 4.58% |
| O=C(CCC(=O)n1ncc2ccc(Cl)cc21)N1CCN(c2ccccc2)CC1 | -6.91% | 4.3% | 3.35% | -0.591% | -2.17% |
| COC(=O)Nc1nc2ccc(C(=O)c3cccs3)cc2[nH]1 | 3.31% | -6.81% | 7.48% | -24.4% | -24.7% |
| COc1ccc(-c2cc3n(n2)CC(C)(C(=O)NC2CCCCC2)N(Cc2ccc(C)cc2)C3=O)cc1 (configuration not stated) | 0.175% | -0.446% | 2.61% | -7.5% | -3.87% |
| Cc1nc(-c2cccnc2)ncc1C(=O)N1CCC2(CC1)CC(=O)N(C)C2 | -3.35% | -7.36% | -0.79% | -10.2% | -5.14% |
| CCOC(=O)c1cc2n(n1)CC(C)(C(=O)NC1CCC(C)CC1)N(CCc1cccs1)C2=O (configuration not stated) | 1.85% | 0% | 3.26% | -4.6% | 0.979% |
| O=C(N[C@@H]1COCC[C@@H]1OCC1CC1)c1cc(-n2cccn2)ccc1Cl | -4.37% | -6.23% | -0.712% | -6.52% | -2.58% |
| CC(C)c1cc2n(n1)CC(C)(C(=O)NC1CCCCC1)N(c1cccc(Cl)c1)C2=O (configuration not stated) | -0.152% | 0% | 3.49% | 3.26% | -0.082% |
| CC1(C(=O)NC2CCCCCCC2)Cc2ccccc2C(=O)N1CCN1CCCCCC1 (configuration not stated) | -3.59% | 6.21% | -8.96% | 1.36% | -0.301% |
| CCN(c1ccccc1)S(=O)(=O)c1ccc2[nH]c3c(c2c1)CCCC3 | 0.001% | 0.779% | 4.84% | -1.97% | 0.779% |
| O=C(c1ccccc1)N1CC2(CCCN2CC2CC2)Cc2ccccc21 (configuration not stated) | -3.66% | 1.98% | -9.46% | -6.83% | -1.09% |
| COc1ccc(-c2cc3n(n2)CC(C)(C(=O)NCc2ccccc2)N(Cc2ccc(F)cc2)C3=O)cc1 (configuration not stated) | 5.56% | 0% | 8.02% | 7.26% | 3.1% |
| O=S(=O)(Nc1cc(Cl)c(Oc2cnc3ccccc3c2)c(Cl)c1)c1ccc(Cl)cc1Cl | -22.9% | -44.5% | -2.61% | -89.7% | -37.7% |
| CC(=O)c1ccc(Nc2nc3c(S(=O)(=O)c4ccc(C)c(C)c4)nnn3c3ccccc23)cc1 | -3.98% | 3.67% | -3.48% | -3.83% | -4.85% |
| CN(C)CC(=O)Nc1ccc2[nH]c(=O)c3ccccc3c2c1 | -7.36% | -1.6% | -28.5% | -22.4% | -7.67% |
| Cc1c(NC(=O)OCC2COCCN2)cn2ncnc(Nc3ccc4c(cnn4Cc4cccc(F)c4)c3)c12 (configuration not stated) | -2.17% | – | 5.54% | – | – |
| O=C(C1COc2cc(S(=O)(=O)NCCN3CCOCC3)ccc2O1)N1CCOCC1 (configuration not stated) | 1.04% | 0% | 9.7% | 10.9% | 8.37% |
| Cc1ccc(CNC(=O)CCn2ccc3cc(S(=O)(=O)N4CCC(C)CC4)ccc32)cc1 | 6.15% | 1.8% | 2.83% | -0.859% | -0.173% |
| CC1(C)[C@H]2C[C@H](C/C=C\CCCC(=O)O)[C@@H](NC(=O)c3csc4ccc(O)cc34)[C@@H]1C2 | -0.893% | 0.549% | 11.3% | -39.8% | -1.08% |
| CN1C(=O)c2cc(NC(=O)CCC(=O)N3CCOCC3)ccc2N2CCN=C12 | -1.25% | -0.082% | -1.75% | -2.21% | -4.4% |
| CCNC(=O)N[C@H]1CC[C@]2(C)CCC([C@H](C)C(=O)N(C)CCC#N)[C@H](O)[C@H]2[C@@H]1C (some centres not stated) | -1.48% | -0.678% | -0.232% | -4.2% | -1.92% |

— PubChem BioAssay AID1745853 (National Center for Advancing Translational Sciences (NCATS), 2022)
